The whole screen tested about 150,000 compounds, of which about 540 (0.36%) showed an effect of 50% or more. This is one part of the list.

In the assay the test system is Plasmodium falciparum. Kind of assay: Primary screen in NF54 nanoGlo assay, in single point, at 2uM, 72h; a lower Z score goes with more inhibition. The class given is functional, Erythrocyte. The conditions noted are these: timepoint 72 hour.
What is called % Inhibition is the change of the read-out against control, counted positive when it falls. Regarding `CN1CCCc2cc(C(=O)N3CCC[C@H](Nc4ccc5c(c4)OCCO5)C3)ccc21`, the “% Inhibition” value is reported as -6% and the Z score is recorded as 0.75.
For `CC(C)Cc1cc(C(=O)NCC[C@H]2CCCN(C)C2)on1`, in that order: 13% and -1.62.
For `CCN(C)C(=O)N[C@H]1CCCCC[C@H]1NC(=O)N(C)CC`, in that order: -9% and 1.44.
For `Cc1nn(-c2ccc(F)cc2)c(C)c1[C@@H]1CC(O)=Nc2c1c(C)nn2-c1ncnc2[nH]cnc12`, in that order: -18% and 2.24.
On to `CC(C)c1nc(CC(=O)N[C@@H](C)c2ccc3c(c2)CC(=O)N3)cs1`, for which the “% Inhibition” value is -5% and the Z score amounted to 0.88.
For `COc1ccc(C(=O)Nc2ccc(-n3nc(OCC(C)C)nc3-c3ccc4c(c3)OCO4)cc2)cc1`, the “% Inhibition” value is reported as -17% and the Z score is reported as 1.8.
On to `CCc1nccc(CN2CCC[C@H](CS(C)(=O)=O)C2)n1`, for which the “% Inhibition” value is recorded as -20% and the Z score stood at 2.11.
As to `C[C@@H](CNC(=O)NC1CCCCC1)Cn1cc(Cl)cn1`, the “% Inhibition” value came to 4% and the Z score is given as -0.53.
As to `CCOCC(=O)Nc1cncc(Br)c1C`, the “% Inhibition” value was -4% and the Z score was 0.86.
As to `O[C@H](c1ccccc1)c1nncn1Cc1ccc(F)c(F)c1`, the “% Inhibition” value is given as -13% and the Z score is on record as 1.51.
Turning to `Cc1ccc(-c2nnc(CN3CCN(c4ccccc4Cl)C(=O)C3)o2)n1C`, the “% Inhibition” value was -4% and the Z score amounted to 0.43.
For `COC(=O)Cc1cnc(NC(=O)CNCc2ccncc2)s1` the same measures were -9% and 1.4.
Take `O=S(=O)(c1ccc(N2CCC(CO)CC2)nc1)N1CCCCC1`: the “% Inhibition” value turned out to be 6% and the Z score is given as -0.65.
For `COc1ccc(-c2nnc(NC(=O)[C@H](C)c3ccccc3)s2)cc1` the same measures were 5% and -0.72.
For `COc1ccc(-n2ccc3c(cnc4ccn(-n5cnnc5)c(=O)c43)c2=O)cc1`, in that order: 11% and -1.61.
Regarding `O=C(c1cc(CC2(NC3CCC(CO)CC3)COC2)no1)N1CCCCC1` (stereo not drawn), the “% Inhibition” value was found to be 1% and the Z score is on record as -0.08.
For `COc1cccc(N2C(=O)N(c3ccc(Cl)c(Cl)c3)C3CS(=O)(=O)CC32)c1` (stereo not drawn) the same measures were 3% and -0.37.
For `CCc1c(C)noc1NC(=O)CCN1CCCCC1=O` the same measures were -1% and 0.17.
For `O=C(c1onc2c1CCCC2)N1CCn2c(Cc3ccccc3F)nnc2C1`, in that order: 2% and -0.25.
Regarding `Cc1ccc2cc(CN(CC3CC3)C(C)C)c(=O)[nH]c2c1`, the “% Inhibition” value was -16% and the Z score is listed as 3.17.
For `CC(C)(C)OC(=O)NCc1cnn(C2CCCC2)c1`, in that order: -5% and 0.93.
For `COc1cccc(CNC(=O)c2c(C)noc2-c2cccc(F)c2)c1`, in that order: -12% and 1.88.
Take `CC(C)(C)OC(=O)NC[C@@H](C(=O)O)c1ccccc1`: the “% Inhibition” value came to 18% and the Z score is -2.06.
For `CCOc1ccc(C2=Nc3ncnn3/C2=N/Cc2ccc(C)cc2)cc1`, in that order: -4% and 0.75.
Regarding `CC(C)Oc1ccc(C(=O)N(CN2CCCC2=O)c2ccc(F)cc2)cc1`, the “% Inhibition” value is given as -6% and the Z score is listed as 1.01.
As for `COCCN(CCN(C)C)C(=O)CNc1cc(Cl)ccc1OC`, the “% Inhibition” value is on record as -14% and the Z score turned out to be 1.98.
For `CCOCCNC(=NC)N(C)Cc1ccc(OC)c(F)c1`, in that order: -3% and 0.24.
For `CCc1c(C(=O)N(C)Cc2cscn2)cnn1C(C)(C)C`, in that order: 8% and -1.53.
For `COc1ccc(CC(=O)N2CC[C@@]3(CCCN(CC4CCC4)C3=O)C2)cc1` the same measures were -4% and 0.49.
As for `O=C(CC1CCCCC1)NC1(c2ncon2)CCOCC1`, the “% Inhibition” value is given as -1% and the Z score turned out to be 0.12.
For `CC(C)(C)c1ccc(OCc2n[nH]c([C@H]3CCCN3)n2)cc1` the same measures were -13% and 1.85.
As for `C[C@H](N(C)C(=O)CCc1ccco1)C(C)(C)C`, the “% Inhibition” value was -9% and the Z score was found to be 1.37.
For `CCC(=O)N1CCCC[C@H]1c1nnc2n1CCN(C(=O)c1ocnc1C)C2`, in that order: -3% and 0.42.
For `Cc1cc(C(=O)N(CCN2CCOCC2)C2CCOCC2)cc(C)n1` the same measures were -9% and 1.45.
For `COc1cccc(CN2CC(N(C3CCOCC3)S(C)(=O)=O)C2)c1`, in that order: -16% and 2.95.
Consider `O=C1C[C@@H](c2ccccc2)N(C(=O)CC2CCCC2)CCCCCN1`, for which the “% Inhibition” value is on record as -5% and the Z score came to 0.69.
For `CN(C)Cc1nc(C(=O)N[C@H]2COCC[C@@H]2Oc2ccccn2)cs1` the same measures were 0% and 0.05.
For `CC1CCC(C(N)=O)C(C)N1C(=O)[C@H]1CCCO1` (stereo partly drawn) the same measures were 4% and -0.59.
For `O=C(NCCc1ccncc1)C1CN(C(=O)COc2ccccc2F)C1`, in that order: -9% and 1.36.
`Cc1ccc(NC2CCN(C(=O)CCc3cncc(F)c3)CC2)cc1`: the “% Inhibition” value is listed as -9% and the Z score amounted to 1.07.
For `Cn1c(Cn2cccn2)nnc1[C@H]1C[C@@H](Nc2cccc(C#N)n2)C1` the same measures were -7% and 1.21.
For `COC[C@H]1CCCN1C(=O)C[C@@H]1O[C@H](CNC(=O)Nc2ccccc2)[C@@H](O)[C@H]1O` the same measures were 36% and -4.13.
For `CC1(C)CN(C(=O)Nc2cc(-c3ccccc3)on2)CC[S@@+]1[O-]`, in that order: -3% and 0.25.
On to `NC(=O)c1cc(CN[C@H]2CCCc3cccnc32)n2c1CCCC2`, for which the “% Inhibition” value is -4% and the Z score is listed as 0.46.
For `Cc1cc2n(n1)CCC(=O)N2CC(=O)NCc1ccc(C)o1`, in that order: -12% and 1.2.
For `Cc1cccc(Oc2ccc(NC(=O)N3CC[C@H](O)C3)cn2)c1C`, in that order: 6% and -0.7.
For `CCN1C[C@@H](CN(C)c2nccnc2C#N)CC1=O`, in that order: 2% and -0.23.
For `COc1ccc(OC)c(CNC(=O)[C@H]2CCCN(c3cnc4nccnc4c3)C2)c1`, the “% Inhibition” value is -4% and the Z score worked out at 0.67.
For `CCN(CC)c1nnc(-c2cccc(C#N)c2)[nH]1`, in that order: -14% and 2.51.
For `CCNC(=O)N1CCN(c2nc(C3CC3)nc(C)c2Cc2ccc(C)cc2)CC1`, in that order: -13% and 1.19.
For `OC[C@H]1CCCCN1Cc1ccc2c(c1)CN(Cc1cccn1-c1ccc(Cl)cn1)CCO2` the same measures were 11% and -1.42.
As for `O=S(=O)(NCc1ccco1)C1CCOC(C(F)(F)F)C1` (stereo not drawn), the “% Inhibition” value is listed as -16% and the Z score was 2.09.
For `CC(C)(C(=O)Cn1ncsc1=O)c1ccccc1`, in that order: -8% and 0.73.
Turning to `O=S(=O)(CCc1cccc(F)c1)N1CCC[C@H]1c1ncccn1`, the “% Inhibition” value is -1% and the Z score is on record as 0.19.

The record behind these values is ChEMBL document CHEMBL4888484, “Replenishing the malaria drug discovery pipeline: Screening and hit evaluation of the MMV Hit Generation Library 1 (HGL1) against asexual blood stage Plasmodium falciparum ,using a nano luciferase reporter read-out” (2022).
